Measurements from article PMC4336329 (PLoS ONE, 2015).
Hit rate of the full screen: of about 310,000 compounds, about 2,200 (0.71%) showed an effect of 50% or more. The effect is printed as a negative number. The list shows a part of the results.

Target: human ether-à-go-go-related gene (hERG) potassium channel (human, UniProt Q12809)
Test: primary screen, population patch clamp on CHO cells stably expressing hERG

Chain of human ether-à-go-go-related gene (hERG) potassium channel (Q12809 whole entry, looked up): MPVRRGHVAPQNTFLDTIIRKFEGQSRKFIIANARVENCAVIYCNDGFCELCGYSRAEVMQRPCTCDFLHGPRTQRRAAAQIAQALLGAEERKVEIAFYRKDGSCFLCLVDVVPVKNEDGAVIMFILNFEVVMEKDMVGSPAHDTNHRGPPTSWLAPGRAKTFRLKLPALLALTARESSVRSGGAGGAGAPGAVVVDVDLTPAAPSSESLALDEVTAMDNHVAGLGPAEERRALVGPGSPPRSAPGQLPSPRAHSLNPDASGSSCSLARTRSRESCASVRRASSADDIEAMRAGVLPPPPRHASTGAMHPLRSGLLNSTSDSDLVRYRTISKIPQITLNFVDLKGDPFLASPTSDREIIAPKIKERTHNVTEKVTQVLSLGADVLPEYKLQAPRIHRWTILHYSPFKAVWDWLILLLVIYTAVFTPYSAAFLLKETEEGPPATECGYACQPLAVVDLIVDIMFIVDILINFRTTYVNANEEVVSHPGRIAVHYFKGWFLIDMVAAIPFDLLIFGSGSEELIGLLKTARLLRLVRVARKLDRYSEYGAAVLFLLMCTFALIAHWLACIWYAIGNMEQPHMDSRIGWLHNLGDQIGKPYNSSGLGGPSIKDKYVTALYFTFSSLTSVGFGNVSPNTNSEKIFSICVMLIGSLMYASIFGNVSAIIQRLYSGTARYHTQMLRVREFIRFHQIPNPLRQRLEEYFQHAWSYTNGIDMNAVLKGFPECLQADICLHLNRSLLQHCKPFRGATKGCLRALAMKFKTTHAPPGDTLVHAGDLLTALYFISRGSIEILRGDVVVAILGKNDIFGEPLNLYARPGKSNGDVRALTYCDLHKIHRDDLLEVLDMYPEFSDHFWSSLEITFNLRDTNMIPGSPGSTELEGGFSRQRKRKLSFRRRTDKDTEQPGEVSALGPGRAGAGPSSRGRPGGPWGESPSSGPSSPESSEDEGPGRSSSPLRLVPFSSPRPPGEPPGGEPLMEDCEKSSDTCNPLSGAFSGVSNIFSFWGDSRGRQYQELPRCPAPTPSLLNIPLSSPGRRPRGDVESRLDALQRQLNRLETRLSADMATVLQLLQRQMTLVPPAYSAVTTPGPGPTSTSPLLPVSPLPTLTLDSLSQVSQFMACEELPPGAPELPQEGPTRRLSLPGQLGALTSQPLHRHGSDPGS

SMILES | hERG current change (%, negative = inhibition) at 1uM
Cc1ccc(N(CC(=O)Nc2c(C)n(C)n(-c3ccccc3)c2=O)S(C)(=O)=O)c(C)c1 | 6.44%
CC1=C(C(=O)OCc2cc(C)on2)N2C(=O)[C@@H](NC(=O)OCc3cc(C)on3)[C@H]2SC1 | 3.04%
COC(=O)C1CCN(c2ccc([N+](=O)[O-])cc2[N+](=O)[O-])CC1 | 1.53%
CCC1CCCCN1C(=S)NC(=O)c1cc(Br)ccc1Cl (stereo not drawn) | 8.27%
CC(=C/c1ccccc1)/C=N/n1cnnc1 | 11%
CC1(C)NC(=O)N(CCCCOc2ccc(Br)cc2Cl)C1=O | 4.97%
CC1CCN(C(=O)COC(=O)CCc2c[nH]c3ccccc23)CC1 | 13.7%
Cc1ccc(S(=O)(=O)NCC(=O)N2CCN(c3ccccn3)CC2)cc1 | -3.7%
CC(C)c1ccc(CCNC(=O)c2ccc([N+](=O)[O-])cc2)cc1 | 13.6%
O=C(Cn1nnc2ccccc21)OCC(=O)c1ccc(Cl)c(Cl)c1 | 6.13%
Cc1cc(Cl)ccc1OCC(=O)NNC(=O)C1CCCO1 (stereo not drawn) | 9.37%
CN(C(=O)COC(=O)c1ccc(C(C)(C)C)cc1)C1CCS(=O)(=O)C1 (stereo not drawn) | 6.14%
CC(NC(=O)Cc1cccs1)c1ccc2c(c1)OCO2 (stereo not drawn) | -4.41%
Cc1cccc(C)c1N(CC(=O)N1CCN(c2ccccc2F)CC1)S(C)(=O)=O | 10.4%
CCOc1ccc(N/C(=N/c2nc(C)cc(C)n2)NC(C)=O)cc1 | 13.2%
O=C(CCOc1ccccc1)Nc1ccnn1C1CCN(CCc2ccccc2)CC1 | -51.4%
CC1CCN(CCCNC(=O)C2CCN(S(=O)(=O)N3CCCCC3)CC2)CC1 | 11.9%
CCOC(=O)c1c(N)c2cc([N+](=O)[O-])ccc2n1C | 12.7%
CN(CC(=O)Nc1cccc(F)c1)C(=O)Cn1cnc2c1c(=O)n(C)c(=O)n2C | 3.18%
Cc1ccc(S(=O)(=O)Nc2cccc(-c3ccc4nnc(C)n4n3)c2)s1 | 2.22%
Cl.c1ccc(COc2ccc(CNCc3cccnc3)cc2)cc1 | 5.65%
COc1ccc(/C=C2\Oc3cc(OCC(=O)N4CCC[C@H]4C(=O)O)ccc3C2=O)cc1OC | -0.209%

SMILES | hERG current change (%, negative = inhibition) at 1uM
O=C(C1CC1)N1N=C(c2ccc(Cl)cc2)CC1(O)C(F)(F)F (stereo not drawn) | 8.91%
COc1cccc(C(=O)C2CCCN(C(=O)CCc3scnc3C)C2)c1 (stereo not drawn) | -4.28%
O=C(NCc1ccco1)Nc1cccs1 | 6.5%
Cc1ccc(N=Cc2c(O)c3ccccc3oc2=O)cc1F | 14%
COc1cc([N+](=O)[O-])ccc1-c1ccc(C(=O)Nc2ccc(NC(C)=O)cc2)o1 | 1.74%
COc1ccc(S(=O)(=O)NCc2ccccn2)c(C)c1C | 4.55%
CCN(CC)S(=O)(=O)c1ccc2c(c1)c(=O)c(C(=O)NCCc1ccccc1)cn2C | 7.68%
O=C(OCC(=O)N1CCc2ccccc21)c1c2c(nc3ccccc13)CCCCC2 | 1.44%
CCOC(=O)C1=C(C)NC2=C(C(=O)C(C(=O)OCC)C(c3ccccc3OC)C2)C1c1ccccn1 (stereo not drawn) | 9.78%
CCOC(=O)c1[nH]c(C)c(C(=O)NCc2ccco2)c1C | 0.814%
COc1ccccc1N1CCN(C(=O)c2ccc3c(=O)n4c(nc3c2)CCCCC4)CC1.Cl | 10.4%
Cc1cccc2cc(C#N)c(NCc3ccccc3)nc12 | 17.8%
Nc1nnc(SCC(=O)Nc2cccc(S(=O)(=O)N3CCCCC3)c2)s1 | 2.77%
COc1ccc(Cl)c2sc(N3CCN(C(C)=O)CC3)nc12 | -2.04%
O=C(O)CCc1ccc(-c2ccc(Br)cc2)n1-c1cccc(O)c1 | 20.8%
CCOC(=O)N1CCC(NC(=O)c2cc3c(=O)n(C)c4ccccc4c3n2C)CC1 | 9.62%
Cc1nn(-c2ccccc2)c(Cl)c1/C=N/Nc1nc2ccccc2n1C | 12.6%
Cc1cc(C)n(Cc2cccc(F)c2)c(=O)c1C#N | 3.71%
Cc1ccccc1/C(N)=N/OC(=O)N1c2ccccc2Sc2ccccc21 | 18%
COc1ccc(NC(=O)CSc2nc(SC)ns2)cc1 | 11.5%
O=S(=O)(c1ccccc1)N1CCN(C(=S)NCc2ccccc2)CC1 | 2.81%
CCOc1ccc(S(=O)(=O)N2CCCC(C(=O)Nc3cccc(C)c3)C2)cc1 (stereo not drawn) | 15.1%

SMILES | hERG current change (%, negative = inhibition) at 1uM
CCOC(=O)N1CCN(Cc2nc3c(c(=O)[nH]c(=O)n3C)n2Cc2ccccc2C)CC1 | -8%
COc1cccc(/C=C2\SC(=S)N(CCCC(=O)Nc3ccc(C(=O)O)cc3)C2=O)c1 | 16%
CC1CC(C)CN(C(=O)C(C)N(C)CC(=O)Nc2ccccc2Cl)C1 (stereo not drawn) | 6.48%
CCC(C)c1ccc(S(=O)(=O)N2CCN(C(=O)COc3ccc4c(C)cc(=O)oc4c3)CC2)cc1 (stereo not drawn) | 8.37%
O=C(NC1CCN(C(=O)c2cccs2)CC1)c1ccccc1 | 3.07%
CCOC(=O)CSC1=N/C(=C\c2cccnc2)C(=O)N1c1ccc(OC)cc1 | 0.577%
COc1ccc(S(=O)(=O)NC(C)C(=O)Nc2ccccc2F)cc1 (stereo not drawn) | 7.22%
N#Cc1cc2c(nc1SCc1cccnc1)CCC2 | -4.71%
OC1(c2ccccc2F)CCN(Cc2nnnn2CCc2ccccc2)CC1 | 18.8%
CCOC(=O)c1c(C)nc2c(c(SC)nn2-c2ccccc2)c1N | 16.6%
Clc1ccc(-n2nnc(-c3ncc[nH]3)n2)cc1Cl | 4.89%
O=C(c1noc2c1CCc1ccccc1-2)N1CCOCC1 | 8.91%
COc1ccc(Cl)cc1NS(=O)(=O)c1cccc2cccnc12 | 19.4%
NS(=O)(=O)c1ccc(NC(=O)c2ccc(COc3ccccc3)o2)cc1 | 14.8%
COc1ccc2[nH]c(=O)c(CN(Cc3ccccc3)C(=S)NCC3CCCO3)cc2c1 (stereo not drawn) | 9.55%
CCC(=O)c1ccc(OCC(O)Cn2nc(C)cc2C)cc1 (stereo not drawn) | 7.89%
CCC(C)C1NC(=S)N(C2CCCCC2)C1=O (stereo not drawn) | 3.28%
O=[N+]([O-])c1cc(/C=N/O)ccc1SCc1ccccc1 | 6.61%
Nc1nc(COC(=O)CCC(=O)c2ccc(Cl)cc2)nc(Nc2ccccc2)n1 | 4.9%
Cc1ccccc1C(=O)NC(=S)N(C)C1CCCCC1 | -4.55%
Cc1ccc(CNC(=O)CSc2nnc3c(n2)[nH]c2ccc(F)cc23)cc1 | 15.3%
CCOc1ccc(OCCC(=O)OCC(=O)N2CCN(S(=O)(=O)c3ccc(Cl)cc3)CC2)cc1 | -1.84%

SMILES | hERG current change (%, negative = inhibition) at 1uM
COc1ccccc1C(=O)Nc1cccc(C(=O)c2ccccc2)c1 | 4.61%
Cc1sc2ncnc(SCC(=O)N3CCCC3=O)c2c1C | 9.56%
O=C(OCc1ccc(Br)cc1F)c1cc2ccccc2oc1=O | 9.64%
COc1ccc(C(=O)CC2(C(=O)O)CCCCC2)cc1 | 9.93%
CCOCCCNc1ncc2c(n1)CC(c1ccc(C)cc1)CC2=O (stereo not drawn) | 12.2%
COc1cc(-n2c(=O)c3ccccc3n(CC(=O)c3ccc(F)cc3)c2=O)cc(OC)c1OC | 18.3%
CCOC(=O)C1=C(C)n2c(s/c(=C/c3cccc([N+](=O)[O-])c3)c2=O)=NC1c1ccc(O)c(OC)c1 (stereo not drawn) | -4.93%
COc1cc(-c2noc(CCCC(=O)NCc3ccccc3)n2)cc(OC)c1OC | 9.02%
CCc1ccc(N(CC(=O)Nc2ccccc2C(=O)N2CCCC2)S(C)(=O)=O)cc1 | 2.3%
COc1ccc2cc(OCC(=O)NNC(=O)Nc3ccc(F)cc3)ccc2c1 | 13.1%
Oc1c(C(c2ccccc2)N2CCc3ccccc3C2)sc2ncnn12 (stereo not drawn) | 14.3%
COCCNC(=O)c1cccc(OC2CCN(Cc3ccccc3C)CC2)c1 | 10.3%
Cc1cc(C)n2nc(SCC(=O)N3CCN(c4ccc(F)cc4)CC3)nc2n1 | 5.53%
O=C(NCCCN1CCN(c2ccccc2F)CC1)Nc1ccccc1[N+](=O)[O-] | -51.1%
CCCCCC1CCC(c2n[nH]c(=S)n2C)CC1 (stereo not drawn) | 6.3%
CCC(C)N(C(=O)CSc1ncnc2c1cnn2-c1ccccc1)C1CCS(=O)(=O)C1 (stereo not drawn) | 9.25%
COc1ccc(C(=O)Nc2nc3ccc(S(C)(=O)=O)cc3s2)cc1 | 15.4%
CC1(C)CC(CC(=O)NNc2nc(-c3ccccc3)cs2)C(=O)O1 (stereo not drawn) | 4.12%
O=C1C2CCCN2C(c2ccc(F)cc2)N1c1cccc(Cl)c1 (stereo not drawn) | 8.69%
Nc1ccc(-n2nnnc2CN2CCOCC2)cc1 | 11.1%
CCN(C1CCCCC1)S(=O)(=O)c1ccc(S(=O)(=O)N(CC(=O)Nc2ccccc2)C2CC2)cc1 | -6.64%
